In PubChem BioAssay AID1645887 (National Center for Advancing Translational Sciences (NCATS), 2021):
“And” between values parts separate entries of the source, which are not always exact repeats. Equal entries are not always repeated. Among all 16,000 compounds or so, about 40 (0.2%) were called active. About 1% were inconclusive and are not listed. The call rests on the fitted dose curve; in most records, active means well fitted activation curve with a large enough effect; inconclusive means small, poorly fitted or top-dose-only effect, or another doubt; inactive means no such curve, though single readings can be large or run the other way. Some of the results follow.
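Further: exchange makes BODIPY-GDP fluorescence drop when released from Rap1B; series mostly up to about 150 µM.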
On the % scale 0 is the no-effect control and ±100 the full control effect.

Each molecule was assayed against Rap guanine nucleotide exchange factor 4 (Homo sapiens) (UniProt Q8WZA2) (assay: Validation qHTS for agonist of cAMP-regulated guanine nucleotide exchange factor 4 (EPAC2)). Conditions: EPAC2 Rap1B BODIPY-GDP exchange, fluorescence; activation: active compounds read high.
UniProt Q8WZA2, sequence (Q8WZA2 whole entry, looked up): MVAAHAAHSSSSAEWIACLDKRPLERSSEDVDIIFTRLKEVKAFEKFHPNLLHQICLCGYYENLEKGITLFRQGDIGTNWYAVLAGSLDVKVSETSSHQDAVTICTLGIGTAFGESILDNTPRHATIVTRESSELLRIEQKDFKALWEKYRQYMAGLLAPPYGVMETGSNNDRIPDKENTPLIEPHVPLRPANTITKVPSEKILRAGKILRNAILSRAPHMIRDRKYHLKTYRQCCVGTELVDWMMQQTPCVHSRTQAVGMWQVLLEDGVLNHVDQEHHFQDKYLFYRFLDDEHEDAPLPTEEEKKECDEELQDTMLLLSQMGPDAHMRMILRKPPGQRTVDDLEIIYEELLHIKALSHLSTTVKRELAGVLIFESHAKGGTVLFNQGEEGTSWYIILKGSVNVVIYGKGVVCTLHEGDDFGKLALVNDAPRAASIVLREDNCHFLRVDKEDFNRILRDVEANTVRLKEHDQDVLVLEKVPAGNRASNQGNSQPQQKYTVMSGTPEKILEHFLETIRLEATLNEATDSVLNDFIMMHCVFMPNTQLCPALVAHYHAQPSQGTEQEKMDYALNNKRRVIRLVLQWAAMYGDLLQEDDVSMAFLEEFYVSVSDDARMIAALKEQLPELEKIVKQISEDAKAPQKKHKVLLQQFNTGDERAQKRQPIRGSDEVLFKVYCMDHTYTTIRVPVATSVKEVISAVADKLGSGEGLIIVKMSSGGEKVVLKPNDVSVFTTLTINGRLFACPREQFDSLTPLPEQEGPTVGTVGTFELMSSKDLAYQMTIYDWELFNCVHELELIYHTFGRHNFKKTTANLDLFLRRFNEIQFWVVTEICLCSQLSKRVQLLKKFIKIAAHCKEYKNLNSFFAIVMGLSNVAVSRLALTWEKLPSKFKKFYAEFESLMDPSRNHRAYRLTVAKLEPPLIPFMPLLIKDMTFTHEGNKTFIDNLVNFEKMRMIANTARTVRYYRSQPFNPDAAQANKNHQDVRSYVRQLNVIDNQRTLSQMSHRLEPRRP
How it was run: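 Fluorescent exchange assay: 100 nM EPAC2 with 250 nM RAP1B-BODIPY-GDP and 50 uM GDP; compound added, 5 min at room temperature, then read (ex 480/em 540 nm) every 5 min for 30 min. Normalized to 6.5 mM cAMP agonist control.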
In the case of O=C1CCCCC1CN1CCCCC1 (centres undefined), the activation is reported as inactive: -9.13%.
For CCN1C[C@]2(COC)[C@H](O)C[C@H](OC)[C@@]34[C@@H]5C[C@@]6(O)[C@H](OC(=O)c7ccccc7)[C@@H]5[C@@](OC(C)=O)([C@@H]([C@H](OC)[C@H]23)[C@@H]14)[C@@H](O)[C@@H]6OC, the activation was inactive: -9.4%.
For CNc1ccc(C(=O)CC(O)CCC(C)C2OC(=O)CC(O)CC(=O)CC(O)CC(O)CC(O)CC(O)CC3(O)CC(O)C(C(=O)OC)C(CC(O[C@@H]4O[C@H](C)[C@@H](O)[C@H](N)[C@@H]4O)/C=C/C=C/C=C/C=C/C=C/C=C/C=C/C2C)O3)cc1 (some centres undefined), the activation was inactive: 2.94%.
In the case of COc1cc2c3cc1Oc1c(OC)c(OC)cc4c1C(Cc1cccc(c1)Oc1ccc(c(O)c1)CC3N(C)CC2)N(C)CC4 (centres undefined), the activation is reported as inactive: -2.28%.
In the case of CC(C)C[C@H](NC(=O)[C@H](Cc1ccccc1)NC(=O)CNC(=O)[C@H](C)NC(=O)[C@@H](N)Cc1ccc(O)cc1)C(=O)O, the activation is reported as inactive: 7.45%.
With O=[N+]([O-])c1cc([As](=O)(O)O)ccc1O the activation was inactive: 8.67% and inactive: -2.07%.
For CCN1C[C@@]2(OC(=O)c3ccccc3NC(C)=O)CCC(OC)[C@@]34C5CC6C(OC)C[C@@](O)(C(CC23)[C@@H]14)C5(O)C6OC (some centres undefined), the activation was inactive: -30.3%.
For O=[N+]([O-])c1cc(I)c(O)c(I)c1, the activation was inactive: -12.7%.
With c1ccc2c(c1)[I+]c1ccccc1-2 the activation was inactive: 9.27% and inactive: 3.47% and inactive: -13.1%.
COc1cc2c(cc1OC)[C@]13CCN4CC5=CCOC6CC(=O)N2[C@@H]1[C@@H]6C5C[C@@H]43 (some centres undefined) was tested, and the activation was inactive: -7.36%.
With CCc1cccc(CC)c1N(COC)C(=O)CCl the activation was inactive: -3.08%.
In the case of COC(C/C=C/C=C/CC/C=C\CC(C)/C=C\C(=C/C(=O)O)CC(=O)O)/C(C)=C\C=C(/C)C(=O)O (centres undefined), the activation is reported as inactive: 8.21%.
O=C(O)c1ccc2[nH]cc(CCCCN3CC=C(c4ccccc4)CC3)c2c1 was tested, and the activation was inactive: -15.8%.
With CNc1ccc2oc(C[C@H]3O[C@@]4(CC[C@H]3C)O[C@H]([C@H](C)C(=O)c3ccc[nH]3)[C@H](C)C[C@H]4C)nc2c1C(=O)O the activation was inactive: -66.1%.
CC(C)CCCC1(C)C=Cc2c(O)c3c(c(CCC(C)C)c2O1)OC12C(CC4CC1C(C)(C)OC2(CCC(C)C(=O)O)C4O)C3=O (centres undefined) was tested, and the activation was inactive: -55.4%.
With COc1ccc2c(c[n+](C)c3c4cc5c(cc4ccc23)OCO5)c1OC the activation was inactive: 16.1% and inactive: 10.6%.
CCC1(c2ccc(N)cc2)CCC(=O)NC1=O (centres undefined) was tested, and the activation was inactive: 6.48% and inactive: -12.1% and inactive: -59.4%.
In the case of C[C@H](Cc1ccc2c(c1)OC(C(=O)O)(C(=O)O)O2)NC[C@H](O)c1cccc(Cl)c1, the activation is reported as inactive: -18.6%.
With CC[C@@H](CO)NC(=O)[C@H]1C=C2c3cccc4c3c(cn4C)C[C@H]2N(C)C1 the activation was inactive: 16.9%.
For CCCCCCCCCC(=O)O[C@H]1CC[C@H]2[C@@H]3CCC4=CC(=O)CC[C@]4(C)[C@H]3CC[C@]12C, the activation was inactive: -9.81%.
C[N+]1(C)CCN(c2ccccc2)CC1 was tested, and the activation was inactive: -11.2% and inactive: -34.1%.
With ClC1=C(Cl)[C@]2(Cl)[C@@H]3[C@@H]4C[C@@H]([C@H]5O[C@@H]45)[C@@H]3[C@@]1(Cl)C2(Cl)Cl the activation was inactive: -6.27%.
For [H+].[H+].[Hg+2].[O-]B([O-])[O-].[c-]1ccccc1, the activation was inactive: -5.46%.
For CCOC(=O)[C@]12Cc3cc(C)ccc3[C@H]1N(Cc1ccccc1)C(=O)c1ccccc12, the activation was inactive: -14.8%.
In the case of O=C1CN=C(c2ccccc2)c2cc(Cl)ccc2N1, the activation is reported as inactive: 1.03%.
C[C@@H](N)[C@@H](O)c1ccccc1 was tested, and the activation was inactive: -2.87%.
With NC(=O)COc1c(F)cc(SCCNS(=O)(=O)c2ccccc2)cc1F the activation was inactive: -76.9%.
In the case of CCCN1CCC[C@H](c2cccc(O)c2)C1, the activation is reported as inactive: -15.4% and inactive: -15%.
For COc1cc2nc(N(C)C)c(CNCCc3c[nH]c4ccccc34)cc2c(OC)c1OC, the activation was inactive: 0.969%.
For CN(C)C(=O)Oc1cc(OC(=O)N(C)C)cc(C(O)CNC(C)(C)C)c1 (centres undefined), the activation was inactive: 5.41% and inactive: -14.8%.
c1ccc(N=Nc2ccccc2)cc1 was tested, and the activation was inactive: -2.68%.
With CN(C(=O)Cc1ccc(Cl)c(Cl)c1)C(CN1CCCC1)c1cccc(OCC(=O)O)c1 (centres undefined) the activation was inactive: 1.78% and inactive: -36.3%.
NCCc1ccc(O)cc1 was tested, and the activation was inactive: 4.08% [middle of 4 runs].
In the case of CN(CCc1ccc(Cl)c(Cl)c1)[C@@H]1CCCC[C@@H]1N1CCCC1, the activation is reported as inactive: 3.29%.
COc1ccc2c(c1)C13CCCC[C@@H]1C(C2)N(C)CC3 (some centres undefined) was tested, and the activation was inactive: 0.544%.
In the case of C[C@@H]1[C@H](O)[C@@H](C)C=CC=CCCC=CC=CC=CC=C[C@H](O[C@H]2O[C@@H](C)[C@H](O)[C@@H](N)[C@@H]2O)CC2O[C@](O)(C[C@@H](O)[C@H](O)CC[C@@H](O)C[C@@H](O)C[C@@H](O)CC(=O)O[C@H]1C)C[C@H](O)[C@H]2C(=O)O, the activation is reported as inactive: -11.9%.
CCc1cc(OC)c(C[C@H](C)N)cc1OC was tested, and the activation was inactive: -9.87%.
With c1ccc(CCN2CCOCC2)cc1 the activation was inactive: -17.4%.
For N[C@@]1(C(=O)O)CC[C@@H](C(=O)O)C1, the activation was inactive: -0.968%.
In the case of Cn1cc(C(=O)C(=O)N[C@H]2CN3CCC2CC3)c2ccccc21, the activation is reported as inactive: 9.38%.
With C[C@@H]1OC(=O)[C@H]2C[C@H]3CCCC[C@@H]3[C@@H](/C=C/[C@H]3CCC[C@H](C)N3C)[C@@H]12 the activation was inactive: -5.19%.
For CNC(C)Cc1ccc2c(c1)OCO2 (centres undefined), the activation was inactive: -4.47%.
COc1ccc(/C=C/C(=O)N2CC3C[C@@H](C2)Cn2c3cccc2=O)cc1OC was tested, and the activation was inactive: -1.01%.
With COc1ccc(CC2NC[C@H](O)[C@H]2OC(C)=O)cc1 (some centres undefined) the activation was inactive: -7.96%.
With Cc1nc2ccccc2c(=O)n1-c1ccccc1Cl the activation was inactive: 1.61%.
For CC[C@H](C)[C@H](NC(=O)[C@H](CCCN=C(N)N)NC(=O)[C@H](CCCN=C(N)N)NC(=O)[C@H](CC(C)C)NC(=O)[C@H](Cc1ccccc1)NC(=O)CNC(=O)CNC(=O)[C@@H](N)Cc1ccc(O)cc1)C(=O)O, the activation was inactive: -4.82%.
For CCCCC/C=C\C[C@@H](/C=C/C=C\C/C=C\CCCC(=O)O)OO, the activation was inactive: -4.4%.
In the case of O=C1CS[C@@H](c2ccccc2Cl)c2cc(Cl)ccc2N1, the activation is reported as inactive: -16.9%.
For CCN(CC)Cc1nccn1-c1ccc([N+](=O)[O-])cc1C(=O)c1ccccc1Cl, the activation was inactive: -11.5%.
With [N-]=[N+]=CC(=O)OC[C@H](N)C(=O)O the activation was inactive: -20.4%.
In the case of C[C@@H](N)Cn1ccc2cc(F)c(Cl)cc21, the activation is reported as inactive: -2.18%.
C#CCN1C(C)=C(C(=O)CCO)[C@@H](c2cccc(-n3oo3)c2)C(C(=O)OC)=C1C was tested, and the activation was inactive: 4.89%.
In the case of Cc1nc(N)sc1CCN, the activation is reported as inactive: -16.9% and inactive: 2.66%.
For O=C(O)CCCCCCNC1c2ccccc2CCc2ccccc21, the activation was inactive: -1.72%.
COP(=S)(OC)Oc1ccc(S(N)(=O)=O)cc1 was tested, and the activation was inactive: 9.2%.
In the case of NCCCC[C@H](NC(=O)[C@H](Cc1ccccc1)NC(=O)[C@H](CCCN=C(N)N)NC(=O)[C@@H](N)Cc1ccc(O)cc1)C(N)=O, the activation is reported as inactive: -9.46%.
For NCCCP(=O)(O)CC1CCCCC1, the activation was inactive: -10.2% and inactive: 10%.
In the case of COc1cc(CCN)cc(OC)c1OC, the activation is reported as inactive: -5.03%.
For COc1cccc2c1C13CC[N+]4(CC5CC5)CO[C@]1(CCC(=O)C3)C4C2, the activation was inactive: 3.83%.
With CCCN1CCO[C@@H]2c3cc(O)ccc3OC[C@@H]21 the activation was inactive: -4.23%.
In the case of C[C@@H]1O[C@@H](O[C@H]2C[C@@H](O)[C@]3(CO)[C@H]4[C@H](O)C[C@]5(C)[C@@H](C6=CC(=O)OC6)CC[C@]5(O)[C@@H]4CC[C@]3(O)C2)[C@H](O)[C@H](O)[C@H]1O, the activation is reported as inactive: -13% and inactive: -19.3% and inactive: -25.1%.
With Clc1cc(I)cc(Cl)c1NC1=NCCN1 the activation was inactive: -13.1%.
C[C@@H](N)Cc1cnc[nH]1 was tested, and the activation was inactive: -17.3% and inactive: 13.1% and inactive: -28%.
CC1NCCOC1c1ccccc1 (centres undefined) was tested, and the activation was inactive: -14%.
COc1ccc2c3c([nH]c2c1)C(C)=NCC3 was tested, and the activation was inactive: 23% and inactive: -2.23% and inactive: 8.55%.
For CCC(C)(C)c1ccc(O)cc1, the activation was inactive: -21.7%.
For CCCN1CCC[C@@H]2Cc3[nH]ncc3C[C@H]21, the activation was inactive: -9.67% [middle of 4 runs].
For C=C(C)C1CNC(C(=O)O)C1CC(=O)O (centres undefined), the activation was inactive: 4.42%.
In the case of O=C(N/N=C/c1ccc([N+](=O)[O-])o1)c1cc([N+](=O)[O-])cc([N+](=O)[O-])c1O, the activation is reported as inactive: -21.5%.
For C[C@]12CC[C@H]3[C@@H](CC[C@@]45O[C@@H]4C(O)=C(C#N)C[C@]35C)[C@@H]1CC[C@@H]2O, the activation was inactive: -8.17%.
For C[C@@]12CC(c3ccoc3)OC(=O)C1CC[C@@]1(C)C2C2C=C[C@@]1(O)C(=O)O2 (some centres undefined), the activation was inactive: -20.5%.
For COC1=C[C@H]2[C@H]3Cc4ccc(OC)c(O)c4[C@@]2(CCN3C)CC1=O, the activation was inactive: -1.84%.
In the case of O=C(Oc1ccccc1)N1CCC2(CCCN(C(c3ccccc3)c3ccccc3)C2)CC1, the activation is reported as inactive: -15.7%.
For O=C1CSC(c2ccccc2Cl)c2cc(Cl)ccc2N1 (centres undefined), the activation was inactive: 13.3%.
